According to the supplement of paper PMC10724272:
MIC of invasive clinical C. tropicalis isolates, CLSI broth microdilution (fluconazole 0.12-256 mg/L, up to 1,024 for the azole-resistant cluster and its neighbour group; other ranges not stated); higher = less susceptible. Call: susceptible or wild type [S] / resistant or non-wild type [R] by CLSI breakpoints or cut-offs; intermediate and dose-dependent carry no call. '<=' and '>=' at the end values are inferred; the source marks only some of them. Isolates are numbered anew.

What follows are test systems tested with CCC(C)n1ncn(-c2ccc(N3CCN(c4ccc(OCC5COC(Cn6cncn6)(c6ccc(Cl)cc6Cl)O5)cc4)CC3)cc2)c1=O [itraconazole] (assay: CLSI broth microdilution.).

Test System	MIC
Candida tropicalis isolate 383 (ERG11 copies: 2, Erg11p: no key change)	0.12 mg/L [S]
Candida tropicalis isolate 305 (ERG11 copies: 2, Erg11p: no key change)	0.12 mg/L [S]
Candida tropicalis isolate 35 (ERG11 copies: 2, Erg11p: no key change)	0.25 mg/L [S]
Candida tropicalis isolate 399 (ERG11 copies: 2, Erg11p: no key change)	≥ 16 mg/L [R]
Candida tropicalis isolate 106 (ERG11 copies: 2, Erg11p: no key change)	0.12 mg/L [S]
Candida tropicalis isolate 322 (ERG11 copies: 2, Erg11p: no key change)	0.12 mg/L [S]
Candida tropicalis isolate 178 (ERG11 copies: 2, Erg11p: no key change)	0.25 mg/L [S]
Candida tropicalis isolate 223 (ERG11 copies: 8, Erg11p: Y132F, S154F (heterozygous))	0.5 mg/L [S]
Candida tropicalis isolate 197 (ERG11 copies: 2, Erg11p: no key change)	0.5 mg/L [S]
Candida tropicalis isolate 66 (ERG11 copies: 2, Erg11p: Y132F, S154F (heterozygous))	0.5 mg/L [S]
Candida tropicalis isolate 120 (ERG11 copies: 2, Erg11p: no key change)	0.25 mg/L [S]
Candida tropicalis isolate 73 (ERG11 copies: 2, Erg11p: no key change)	0.12 mg/L [S]
Candida tropicalis isolate 105 (ERG11 copies: 2, Erg11p: no key change)	0.25 mg/L [S]
Candida tropicalis isolate 396 (ERG11 copies: 2, Erg11p: Y132F, S154F (heterozygous))	0.5 mg/L [S]
Candida tropicalis isolate 251 (ERG11 copies: 2, Erg11p: no key change)	0.12 mg/L [S]
Candida tropicalis isolate 87 (ERG11 copies: 7, Erg11p: Y132F, S154F (heterozygous))	1 mg/L [R]
Candida tropicalis isolate 438 (ERG11 copies: 2, Erg11p: Y132F, S154F (heterozygous))	0.5 mg/L [S]
Candida tropicalis isolate 445 (ERG11 copies: 5, Erg11p: Y132F, S154F (heterozygous))	0.5 mg/L [S]

Test System	MIC
Candida tropicalis isolate 34 (ERG11 copies: 5, Erg11p: Y132F, S154F (heterozygous))	0.5 mg/L [S]
Candida tropicalis isolate 107 (ERG11 copies: 7, Erg11p: Y132F, S154F (heterozygous))	0.25 mg/L [S]
Candida tropicalis isolate 439 (ERG11 copies: 2, Erg11p: no key change)	0.5 mg/L [S]
Candida tropicalis isolate 159 (ERG11 copies: 2, Erg11p: no key change)	0.25 mg/L [S]
Candida tropicalis isolate 142 (ERG11 copies: 2, Erg11p: no key change)	0.06 mg/L [S]
Candida tropicalis isolate 331 (ERG11 copies: 2, Erg11p: no key change)	1 mg/L [R]
Candida tropicalis isolate 327 (ERG11 copies: 2, Erg11p: no key change)	0.25 mg/L [S]
Candida tropicalis isolate 384 (ERG11 copies: 2, Erg11p: no key change)	0.25 mg/L [S]
Candida tropicalis isolate 356 (ERG11 copies: 2, Erg11p: no key change)	0.12 mg/L [S]
Candida tropicalis isolate 259 (ERG11 copies: 4, Erg11p: Y132F, S154F (heterozygous))	0.5 mg/L [S]
Candida tropicalis isolate 254 (ERG11 copies: 2, Erg11p: no key change)	0.06 mg/L [S]
Candida tropicalis isolate 325 (ERG11 copies: 2, Erg11p: no key change)	0.25 mg/L [S]
Candida tropicalis isolate 376 (ERG11 copies: 2, Erg11p: no key change)	0.5 mg/L [S]
Candida tropicalis isolate 393 (ERG11 copies: 2, Erg11p: no key change)	0.25 mg/L [S]
Candida tropicalis isolate 96 (ERG11 copies: 2, Erg11p: no key change)	0.12 mg/L [S]
Candida tropicalis isolate 403 (ERG11 copies: 2, Erg11p: no key change)	0.12 mg/L [S]
Candida tropicalis isolate 191 (ERG11 copies: 2, Erg11p: no key change)	0.06 mg/L [S]
Candida tropicalis isolate 174 (ERG11 copies: 2, Erg11p: no key change)	0.25 mg/L [S]

The test systems below were run with CC[C@@H]([C@H](C)O)n1ncn(-c2ccc(N3CCN(c4ccc(OC[C@@H]5CO[C@@](Cn6cncn6)(c6ccc(F)cc6F)C5)cc4)CC3)cc2)c1=O [posaconazole] (assay: CLSI broth microdilution.).

Test System	MIC
Candida tropicalis isolate 383 (ERG11 copies: 2, Erg11p: no key change)	0.12 mg/L [S]
Candida tropicalis isolate 305 (ERG11 copies: 2, Erg11p: no key change)	0.12 mg/L [S]
Candida tropicalis isolate 35 (ERG11 copies: 2, Erg11p: no key change)	0.12 mg/L [S]
Candida tropicalis isolate 399 (ERG11 copies: 2, Erg11p: no key change)	≥ 8 mg/L [R]
Candida tropicalis isolate 106 (ERG11 copies: 2, Erg11p: no key change)	0.06 mg/L [S]
Candida tropicalis isolate 322 (ERG11 copies: 2, Erg11p: no key change)	0.06 mg/L [S]
Candida tropicalis isolate 178 (ERG11 copies: 2, Erg11p: no key change)	0.25 mg/L [S]
Candida tropicalis isolate 223 (ERG11 copies: 8, Erg11p: Y132F, S154F (heterozygous))	0.5 mg/L [R]
Candida tropicalis isolate 197 (ERG11 copies: 2, Erg11p: no key change)	1 mg/L [R]
Candida tropicalis isolate 66 (ERG11 copies: 2, Erg11p: Y132F, S154F (heterozygous))	0.5 mg/L [R]
Candida tropicalis isolate 120 (ERG11 copies: 2, Erg11p: no key change)	0.25 mg/L [S]
Candida tropicalis isolate 73 (ERG11 copies: 2, Erg11p: no key change)	0.25 mg/L [S]
Candida tropicalis isolate 105 (ERG11 copies: 2, Erg11p: no key change)	0.25 mg/L [S]
Candida tropicalis isolate 396 (ERG11 copies: 2, Erg11p: Y132F, S154F (heterozygous))	0.5 mg/L [R]
Candida tropicalis isolate 251 (ERG11 copies: 2, Erg11p: no key change)	0.06 mg/L [S]
Candida tropicalis isolate 87 (ERG11 copies: 7, Erg11p: Y132F, S154F (heterozygous))	1 mg/L [R]
Candida tropicalis isolate 438 (ERG11 copies: 2, Erg11p: Y132F, S154F (heterozygous))	0.5 mg/L [R]
Candida tropicalis isolate 445 (ERG11 copies: 5, Erg11p: Y132F, S154F (heterozygous))	1 mg/L [R]

Test System	MIC
Candida tropicalis isolate 34 (ERG11 copies: 5, Erg11p: Y132F, S154F (heterozygous))	0.5 mg/L [R]
Candida tropicalis isolate 107 (ERG11 copies: 7, Erg11p: Y132F, S154F (heterozygous))	0.5 mg/L [R]
Candida tropicalis isolate 439 (ERG11 copies: 2, Erg11p: no key change)	0.5 mg/L [R]
Candida tropicalis isolate 159 (ERG11 copies: 2, Erg11p: no key change)	0.12 mg/L [S]
Candida tropicalis isolate 142 (ERG11 copies: 2, Erg11p: no key change)	0.06 mg/L [S]
Candida tropicalis isolate 331 (ERG11 copies: 2, Erg11p: no key change)	1 mg/L [R]
Candida tropicalis isolate 327 (ERG11 copies: 2, Erg11p: no key change)	0.25 mg/L [S]
Candida tropicalis isolate 384 (ERG11 copies: 2, Erg11p: no key change)	0.25 mg/L [S]
Candida tropicalis isolate 356 (ERG11 copies: 2, Erg11p: no key change)	0.12 mg/L [S]
Candida tropicalis isolate 259 (ERG11 copies: 4, Erg11p: Y132F, S154F (heterozygous))	0.5 mg/L [R]
Candida tropicalis isolate 254 (ERG11 copies: 2, Erg11p: no key change)	0.06 mg/L [S]
Candida tropicalis isolate 325 (ERG11 copies: 2, Erg11p: no key change)	0.25 mg/L [S]
Candida tropicalis isolate 376 (ERG11 copies: 2, Erg11p: no key change)	0.5 mg/L [R]
Candida tropicalis isolate 393 (ERG11 copies: 2, Erg11p: no key change)	0.25 mg/L [S]
Candida tropicalis isolate 96 (ERG11 copies: 2, Erg11p: no key change)	0.12 mg/L [S]
Candida tropicalis isolate 403 (ERG11 copies: 2, Erg11p: no key change)	0.12 mg/L [S]
Candida tropicalis isolate 191 (ERG11 copies: 2, Erg11p: no key change)	0.06 mg/L [S]
Candida tropicalis isolate 174 (ERG11 copies: 2, Erg11p: no key change)	0.12 mg/L [S]

What follows are test systems tested with CCCCCOc1ccc(-c2ccc(-c3ccc(C(=O)N[C@H]4C[C@@H](O)[C@@H](O)NC(=O)[C@@H]5[C@@H](O)[C@@H](C)CN5C(=O)[C@H]([C@@H](C)O)NC(=O)[C@H]([C@H](O)[C@@H](O)c5ccc(O)cc5)NC(=O)[C@@H]5C[C@@H](O)CN5C(=O)[C@H]([C@@H](C)O)NC4=O)cc3)cc2)cc1 [anidulafungin] (assay: CLSI broth microdilution.).

Test System	MIC
Candida tropicalis isolate 383 (ERG11 copies: 2, Erg11p: no key change)	0.25 mg/L [S]
Candida tropicalis isolate 305 (ERG11 copies: 2, Erg11p: no key change)	0.03 mg/L [S]
Candida tropicalis isolate 35 (ERG11 copies: 2, Erg11p: no key change)	0.12 mg/L [S]
Candida tropicalis isolate 399 (ERG11 copies: 2, Erg11p: no key change)	0.03 mg/L [S]
Candida tropicalis isolate 106 (ERG11 copies: 2, Erg11p: no key change)	≤ 0.015 mg/L [S]
Candida tropicalis isolate 322 (ERG11 copies: 2, Erg11p: no key change)	≤ 0.015 mg/L [S]
Candida tropicalis isolate 178 (ERG11 copies: 2, Erg11p: no key change)	≤ 0.015 mg/L [S]
Candida tropicalis isolate 223 (ERG11 copies: 8, Erg11p: Y132F, S154F (heterozygous))	0.03 mg/L [S]
Candida tropicalis isolate 197 (ERG11 copies: 2, Erg11p: no key change)	0.03 mg/L [S]
